About 340 (0.77%) of roughly 44,000 compounds were called active. Roughly 5% stayed inconclusive and do not appear here. The call rests on the fitted dose curve; in most records, active means well fitted inhibition curve with a large enough effect; inconclusive means small, poorly fitted or top-dose-only effect; inactive means flat fitted curve, though single readings scatter. This is one part of the list.
Assay: Acumen qHTS Assay for Inhibitors of the mTORC1 Signaling Pathway in MEF (Tsc2-/-, p53-/-) Cells: Sytravon;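 further: plate controls were DMSO for no effect and rapamycin for full effect; nearly all actives have a fitted effect of over 50% in size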
Conditions: phospho-rpS6 immunofluorescence/PI, 24 h; series mostly up to 38.3 µM; activity change, negative = inhibition: at the top concentration
Outline: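 Tsc2-/-, p53-/- MEFs (empty-vector stable line) in DMEM + 10% FBS were treated with compounds 24 h at 37 degree Celsius, fixed, and immunostained for phospho-rpS6 (Alexa-488) with propidium iodide counterstain. Laser-scanning cytometry gave % positive cells, normalized against 7.5 nM rapamycin and DMSO.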

Activity change, negative = inhibition, inactive:
CCOc1cc2[nH]c(=O)n(CCCCC(=O)N3CCN(c4ccc(OC)cc4)CC3)c(=O)c2cc1OCC -10.2%
O=C1CCCc2cc(S(=O)(=O)N3CCCC(C(=O)Nc4ccc(F)c(Cl)c4)C3)ccc2N1 (centres undefined) -9.35%
Cc1ccc(CNC(=O)CCc2c(C)c3ccc(O)c(C)c3oc2=O)cc1 5.46%
CSc1cccc(Nc2cc(C(=O)NCCc3ccc(Cl)cc3)c3ccccc3n2)c1 -7.71%
CC1CN(C(=O)N2CCC(C(=O)N3CCN(c4ccccc4)CC3)CC2)c2cc(Cl)ccc2O1 (centres undefined) 2.66%
CCOc1ccc2nc(N3CCC(C(=O)Nc4ccccc4CC)CC3)sc2c1 -2.52%
Cc1oc2c(cc(NS(=O)(=O)c3ccc(C(C)C)cc3)c3ccccc32)c1C(=O)O 5.37%
CC(=O)Nc1ccc(S(=O)(=O)N2CCC(c3nnc(-c4ccc(C)cc4)o3)CC2)cc1 -15%
CC(C)C(=O)N1c2nc(-c3ccco3)nn2C2(CCCCC2)[C@@H]2CCCC[C@@H]21 -1.16%
CCN(CC)C(=O)c1sc2c(c1C)c(=O)n(-c1ccc(Cl)c(Cl)c1)c(=O)n2Cc1cc(=O)n2ccccc2n1 0.136%
COc1cccc(CNC(=O)Cn2c(=O)n3nc(-c4cccc(F)c4)nc3c3ccccc32)c1 1.95%
Cc1ccc(CCNc2ncnc3onc(-c4ccc(F)cc4)c23)cc1 -0.568%
COc1ccc(NC(=O)CCn2c(=O)c3cccn3c3cccnc32)cc1Cl -0.908%
O=C(Cn1c(=O)n(CCCS(=O)(=O)C2CCCCC2)c(=O)c2ccccc21)Nc1ccccc1C(F)(F)F 4.55%
Cc1ccc(S(=O)(=O)c2[nH]c(-c3ccccc3)nc2SCC(N)=O)cc1 2.63%
COc1ccccc1CNS(=O)(=O)c1ccc2c(c1)CC(=O)N2C -0.474%
CCOC(=O)N1CCN(C(=O)c2c(C)nn(-c3cccc(C)c3)c2-n2cccc2)CC1 -2.3%
COC(=O)c1sc2ncccc2c1-n1c(C)ccc1C -0.12%
Cc1ccc(C)c(N2CCN(C(=O)CCS(=O)(=O)c3cc4c(cc3Cl)NC(=O)CO4)CC2)c1 11.3%
CCOc1ccccc1NC(=O)C(CC)Sc1nc2ncccc2[nH]1 (centres undefined) 2.4%
CCCSc1nnc2c(n1)OC(c1ccc(Br)s1)Nc1ccccc1-2 (centres undefined) -0.941%
COc1ccc(-n2ncc3c2ncn2nc(COc4ccc(Cl)cc4)nc32)cc1 -12.8%
COc1ccc(CNC(=O)C2=C(C)C(=O)OC23CCCCC3)cc1 -3.75%
COc1ccc(CCNC(=O)CSc2cn(CCNC(=O)c3cccc(C(F)(F)F)c3)c3ccccc23)cc1OC -9.5%
Cc1ccc(-n2ncc3c(N4CCC(C(N)=O)CC4)ncnc32)cc1 8.85%
O=C(Cn1ncc2ccsc2c1=O)N1CCN(c2ccc(F)cc2)CC1 -2.07%
CCC1CN(C(=O)Nc2cccc3c2CCCC3)c2cc(Cl)ccc2O1 (centres undefined) -16.7%
Cc1cc(C(F)F)n2nc(C(=O)Nc3ccc(C(C)C)cc3)nc2n1 -4.52%
Cc1oc(-c2ccccc2Cl)nc1CS(=O)CC(=O)NCc1ccc(Cl)cc1 (centres undefined) 2.72%
Fc1ccc(-c2ccc(CNCCSc3nnnn3-c3ccccc3)o2)cc1 -17.2%
O=S(=O)(Nc1nc2ccccc2nc1Nc1ccccc1Br)c1ccccc1 0.785%
Cc1ccc(COc2ccc(-c3cc(C(F)(F)F)n4nc(C)cc4n3)cc2)cc1 -0.0591%
O=C(CSc1nc2c([nH]c3ccccc32)c(=O)n1-c1cccc(Cl)c1)NCC1CCCO1 (centres undefined) 0.209%
CCOc1ccc(-c2cn(-c3ccc(C)cc3)c(SCC(=O)Nc3ccc(C)cc3)n2)cc1 -0.274%
COc1cccc(CNC(=O)C(C)n2ncn3cccc3c2=O)c1OC (centres undefined) 4.13%
O=C(Cn1c2ncccc2c(=O)n1-c1ccccc1)NCc1ccccc1Cl -3.99%
Cc1ccc(NC(=O)Cc2coc3ccc(C(C)C)cc23)c(C)c1 -0.927%
CC1CCc2c(sc(NC(=O)c3cc(-c4cccc(Cl)c4)on3)c2C(N)=O)C1 (centres undefined) -18.3%
Cc1ccc(S(=O)(=O)C(CNC(=O)c2ccc(F)c(F)c2)c2ccco2)cc1 (centres undefined) -11.6%
CCC(=O)C1=C(c2ccc(Cl)cc2)N(C(=O)CC)n2c(C)nnc2S1 -8.35%
CCS(=O)(=O)c1ccc(O)c(Nc2cc(C)nc(SC)n2)c1 -7.64%
O=C(CSc1oc(-c2ccco2)nc1S(=O)(=O)c1ccc(Br)cc1)c1ccccc1 2.49%
CCCCn1c(=O)c2oc3ccccc3c2n(Cc2cccc(F)c2)c1=O -9.22%
CCC(C)Cn1c(/C=C/c2ccccc2)nc2ccccc21 (centres undefined) -22.2%
CCOC(=O)c1cccc(NC(=O)c2cc3c(=O)n(C)c4ccccc4c3n2C)c1 0.289%
Cc1ccc(CNC(=O)CCN2C(=O)COc3ccc(C)cc32)cc1 5.82%
Cc1ccc(NC2=C(CC(=O)O)C(c3ccc(F)cc3)N(c3ccc(C)cc3)C2=O)cc1 (centres undefined) 0.231%
O=C(CCCN1C(=O)c2cccnc2Oc2ccc(Cl)cc21)NCc1ccccc1F 0%
CC1CCN(S(=O)(=O)c2nnc(NC(=O)c3ccc(C(C)C)cc3)s2)CC1 10.7%
CCN(CC)CCOC(=O)c1ccc(NC(=O)c2nn(C)c3c2COc2ccccc2-3)cc1 -6.46%
CCc1ccc(N2CCn3c2nc2c3c(=O)n(C/C=C/c3ccccc3)c(=O)n2C)cc1 6.75%
Cc1ccc(CNC(=O)CC(C)CC2=NS(=O)(=O)c3ccccc3N2)cc1 (centres undefined) -2.14%
COc1ccc(NC(=O)c2c(NCc3ccc(N(C)C)cc3)sc3c2CCC3)cc1 -8.46%
Cc1ccsc1CN(C(=O)c1oc2ccc(F)cc2c1C)C1CCS(=O)(=O)C1 (centres undefined) -1.51%
Cc1ccc(Nc2ncc(C(=O)N3CCN(c4ccc(F)cc4)CC3)c3ccccc23)cc1Cl -2.15%
Cc1ccc(NC(=O)C2CCCN2S(=O)(=O)c2cccc3nsnc23)c(C)c1 (centres undefined) -16.2%
CCOc1ccc(-c2nonc2NC(=O)c2oc3cc(C)c(C)cc3c2C)cc1OCC -2.09%
Cc1ccc(C)c(-n2c3nc(=O)[nH]c(=O)c-3cc3c(C)nn(-c4ccccc4)c32)c1 -1.34%
CCc1ccc(NC(=O)c2ccc(F)c(S(=O)(=O)N3CCC4(CC3)OCCO4)c2)cc1 -11.8%
COc1cccc(CNS(=O)(=O)c2cc3[nH]c(=O)c(=O)[nH]c3cc2C)c1 -6.35%
Cc1ccccc1Cn1c2ccccc2c2cnn(CC(=O)NC(C)CCc3ccccc3)c(=O)c21 (centres undefined) -0.446%
CCc1ccc2oc(C(=O)Nc3c(C)n(C)n(-c4ccccc4)c3=O)cc(=O)c2c1 2.3%
CCOC(=O)c1ccc(N2C(=O)c3n[nH]c(C)c3C2c2ccccc2OC)cc1 (centres undefined) 0.136%
Cc1cccc(CCNc2ncnc3onc(-c4ccc(Cl)cc4)c23)c1 1.41%
COC(=O)c1ccc(NC(=O)CN(CCc2ccccc2)S(=O)(=O)c2ccc(OC)cc2)cc1 2.22%
Cc1cccc(Cn2nc(C)n3c(cc4cc(C)ccc43)c2=O)c1 -6.44%
Cc1ccc(C)c(N2CCN(c3ccc4cc(S(=O)(=O)N5CCC(C)CC5)ccc4n3)CC2)c1 -3.63%
Cc1ccc(C)c(N2CCN(C(=O)c3cc(C)nc4c3c(C)nn4-c3cccc(F)c3)CC2)c1 -0.658%
Cc1ccccc1OCC(=O)Nc1sc2c(c1C(=O)OC(C)C)CCCC2 8.49%
CCOc1ccc(C(=O)NCCc2sc(-c3ccc(OC)c(OC)c3)nc2C)cc1 -8.61%
CCn1c(C(=O)NCc2ccc(OC(C)C)cc2)cc2oc3ccccc3c21 3.84%
CCOc1ccc(-n2c(SCC(=O)N3CCC(C)CC3)nc3c([nH]c4ccccc43)c2=O)cc1 1.79%
Cc1oc(-c2cccc(Cl)c2)nc1CS(=O)(=O)CC(=O)NCc1ccccc1Cl -0.164%
Cc1cccc(N2C(=O)C(CC(=O)Nc3ccc(Cl)cc3)N(Cc3ccco3)C2=O)c1 (centres undefined) 0%
CCCOc1ccc(C(=O)Nc2cc3c(cc2N2CCOCC2)n(C)c(=O)n3C)cc1 1.61%
Cc1cccc(-n2c(=O)c3c(c4cc(C)ccc4n3C)n(CC(=O)NCC3CCCO3)c2=O)c1 (centres undefined) -0.143%
Cc1oc2ccc(O)c(CN3CCN(C)CC3)c2c1C(=O)Nc1cccc(Cl)c1C -3.25%
Cc1ccc2c(c1)c(=O)c1ccccc1n2CCCC(=O)Nc1cc(Cl)ccc1C -12.4%
COc1ccc2c(CNCc3cccs3)c(C(=O)O)n(Cc3ccc(C)cc3)c2c1 3.95%
Cc1nn(CC(=O)O)c(=O)c2cc3cc(F)ccc3n12 -18.5%
COC(=O)c1ccc(C2c3c(oc4ccccc4c3=O)C(=O)N2c2nc(C)c(C(=O)OC)s2)cc1 (centres undefined) -9.15%
O=C(Nc1cc(Cl)cc(Cl)c1)c1ccc2c(c1)N(Cc1cccc(Cl)c1)C(=O)c1ccccc1S2=O (centres undefined) 3.62%
COc1ccccc1NC(=O)c1cc(S(=O)(=O)N2CCN(c3ccccc3Cl)CC2)ccc1F 11.8%
COc1ccc(NC(=O)Cn2c(=O)n(Cc3nc(-c4ccccc4)no3)c(=O)c3cc4c(cc32)OCO4)c(OC)c1 -1.06%
Cc1nn(CC(=O)NCc2ccc(Cl)cc2)c(=O)c2cc3sccc3n12 -7.06%
O=C(Nc1ccc2oc(-c3cccnc3)nc2c1)c1ccc(Br)cc1 6.12%
CC(=O)c1ccc(NC(=O)C2Cc3ccccc3N2C(=O)c2ccccc2)cc1 (centres undefined) -16.3%
Cc1ccc(N2CCN(S(=O)(=O)c3cc(C(=O)Nc4cc(Cl)cc(Cl)c4)ccc3F)CC2C)cc1 (centres undefined) 5.31%
CC(=O)Nc1nonc1-c1nnc(SCC(=O)Nc2cccc(F)c2)n1-c1ccccc1 -0.602%
COC(=O)c1scc(-c2ccc(C)cc2)c1S(=O)(=O)Nc1ccc(F)cc1F 8.97%
CN(C)S(=O)(=O)c1ccc2c(c1)N(CC(=O)NCc1ccc(F)cc1)C(=O)CS2 -4.9%
COc1ccc(C)cc1NC(=O)Cn1c(=O)c(C(F)(F)F)nc2ccccc21 -6.11%
COc1ccc(Oc2c(C(F)(F)F)oc3c(CN4CCCC(C)C4)c(O)ccc3c2=O)cc1 (centres undefined) 1.62%
Cc1ccc(NC(=O)Cn2cc3c(n2)CCCC3)c(Cl)c1 2.73%

Reference: PubChem BioAssay AID493208 (National Center for Advancing Translational Sciences (NCATS), 2011)
